Results are given in words; binding and its absence hold for the method and conditions named. For part of these data: Binding seen in cells or lysates may run through a third protein. Some results given as binding are weak or reduced against the parent protein; the word gives no strength.

Amino acid sequences for entries named in this document (tags omitted). A change or cut given only in a name is not applied to a line headed by its entry. Residues count along the entry.
UniProt Q96BT3: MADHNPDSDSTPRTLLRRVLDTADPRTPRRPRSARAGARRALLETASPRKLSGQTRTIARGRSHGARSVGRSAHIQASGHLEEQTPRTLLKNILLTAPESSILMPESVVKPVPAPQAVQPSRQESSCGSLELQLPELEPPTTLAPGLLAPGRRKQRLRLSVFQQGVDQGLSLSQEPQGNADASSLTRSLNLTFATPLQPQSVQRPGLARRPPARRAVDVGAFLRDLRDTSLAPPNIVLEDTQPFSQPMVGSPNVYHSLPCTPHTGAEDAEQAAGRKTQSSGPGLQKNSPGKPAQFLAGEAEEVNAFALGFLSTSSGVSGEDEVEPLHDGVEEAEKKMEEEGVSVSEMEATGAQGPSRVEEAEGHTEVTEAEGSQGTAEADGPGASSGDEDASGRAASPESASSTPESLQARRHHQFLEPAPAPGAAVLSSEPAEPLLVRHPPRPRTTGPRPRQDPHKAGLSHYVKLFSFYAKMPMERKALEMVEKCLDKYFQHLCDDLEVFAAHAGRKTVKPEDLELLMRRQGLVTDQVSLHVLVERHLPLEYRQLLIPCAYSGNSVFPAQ
UniProt Q5EE01: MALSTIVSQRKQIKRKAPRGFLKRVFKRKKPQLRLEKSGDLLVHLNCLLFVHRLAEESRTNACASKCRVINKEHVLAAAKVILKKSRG
UniProt Q9BU64: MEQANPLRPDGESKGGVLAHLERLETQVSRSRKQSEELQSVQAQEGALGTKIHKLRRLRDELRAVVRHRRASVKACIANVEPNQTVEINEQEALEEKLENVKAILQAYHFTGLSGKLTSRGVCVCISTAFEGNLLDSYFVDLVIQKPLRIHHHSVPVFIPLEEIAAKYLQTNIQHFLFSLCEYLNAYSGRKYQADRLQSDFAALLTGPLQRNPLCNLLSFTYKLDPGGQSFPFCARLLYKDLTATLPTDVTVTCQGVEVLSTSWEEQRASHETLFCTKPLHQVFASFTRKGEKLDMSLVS
UniProt Q6IPU0: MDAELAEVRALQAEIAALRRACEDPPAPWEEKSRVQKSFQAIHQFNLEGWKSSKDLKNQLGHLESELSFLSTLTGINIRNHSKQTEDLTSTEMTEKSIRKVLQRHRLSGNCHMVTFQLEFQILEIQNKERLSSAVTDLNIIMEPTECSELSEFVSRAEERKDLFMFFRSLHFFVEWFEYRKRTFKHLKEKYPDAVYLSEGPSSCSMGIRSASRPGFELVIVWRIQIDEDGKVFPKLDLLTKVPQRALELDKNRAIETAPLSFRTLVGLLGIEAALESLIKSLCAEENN
UniProt Q7L2Z9: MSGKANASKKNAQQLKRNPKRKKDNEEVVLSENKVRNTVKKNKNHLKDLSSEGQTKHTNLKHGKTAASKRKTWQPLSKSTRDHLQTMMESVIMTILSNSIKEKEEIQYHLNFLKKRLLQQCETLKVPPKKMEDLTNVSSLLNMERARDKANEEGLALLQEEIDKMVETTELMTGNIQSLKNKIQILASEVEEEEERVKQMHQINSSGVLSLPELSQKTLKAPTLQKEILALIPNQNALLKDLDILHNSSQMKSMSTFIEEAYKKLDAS
UniProt Q71F23: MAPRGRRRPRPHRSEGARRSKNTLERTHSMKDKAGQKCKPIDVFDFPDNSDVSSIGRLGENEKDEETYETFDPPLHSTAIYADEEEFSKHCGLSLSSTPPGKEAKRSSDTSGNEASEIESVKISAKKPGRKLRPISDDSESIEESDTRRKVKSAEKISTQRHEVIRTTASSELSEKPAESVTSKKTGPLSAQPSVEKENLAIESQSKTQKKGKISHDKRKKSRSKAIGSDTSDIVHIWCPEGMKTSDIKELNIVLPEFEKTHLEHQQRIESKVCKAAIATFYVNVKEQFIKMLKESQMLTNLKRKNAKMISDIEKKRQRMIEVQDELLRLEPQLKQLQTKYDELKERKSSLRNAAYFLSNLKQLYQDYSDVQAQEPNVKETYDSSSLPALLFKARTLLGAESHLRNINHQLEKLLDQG
UniProt Q13352: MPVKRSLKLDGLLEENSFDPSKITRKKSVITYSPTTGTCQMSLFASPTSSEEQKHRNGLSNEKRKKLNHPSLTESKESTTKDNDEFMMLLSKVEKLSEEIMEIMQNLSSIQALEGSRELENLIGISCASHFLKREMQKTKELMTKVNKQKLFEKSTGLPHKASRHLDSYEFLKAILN
UniProt Q9Y5B9, residues 644-988: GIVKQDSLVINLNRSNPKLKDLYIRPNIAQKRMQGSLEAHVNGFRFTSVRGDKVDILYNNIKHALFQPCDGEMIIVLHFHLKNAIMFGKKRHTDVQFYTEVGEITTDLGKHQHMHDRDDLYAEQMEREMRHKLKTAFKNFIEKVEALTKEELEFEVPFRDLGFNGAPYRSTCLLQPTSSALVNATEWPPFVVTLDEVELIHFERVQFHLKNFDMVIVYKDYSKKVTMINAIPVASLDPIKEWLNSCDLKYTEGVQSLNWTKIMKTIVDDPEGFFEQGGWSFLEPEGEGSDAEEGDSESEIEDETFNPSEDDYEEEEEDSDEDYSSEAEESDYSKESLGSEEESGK
UniProt Q08945, residues 197-514: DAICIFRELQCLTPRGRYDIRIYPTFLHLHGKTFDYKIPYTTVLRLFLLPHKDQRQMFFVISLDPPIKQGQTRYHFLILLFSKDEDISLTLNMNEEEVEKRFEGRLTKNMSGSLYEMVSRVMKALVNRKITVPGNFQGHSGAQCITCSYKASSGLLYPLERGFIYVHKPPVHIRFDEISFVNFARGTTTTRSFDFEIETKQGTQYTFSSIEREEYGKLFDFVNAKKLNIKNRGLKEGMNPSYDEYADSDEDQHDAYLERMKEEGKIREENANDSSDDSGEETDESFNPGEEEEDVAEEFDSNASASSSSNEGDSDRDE

Assay [1] addresses ^MBPCENP-T/CENP-W (human) (UniProt Q96BT3+Q5EE01). Put plainly: pull-down; amylose resin, ^MBPCENP-T/CENP-W as bait, FACT constructs as preys; 3 µM each; 20 mM Hepes pH 6.8, 300 mM NaCl, 2.5% glycerol, 1 mM TCEP, 0.01% Tween; 4°C; both purified.
The target in assay [2] is ^GSTCENP-OPQUR (CENP-OPQUR with CENP-U fused to an N-terminal GST) (human) (UniProt Q9BU64+Q6IPU0+Q7L2Z9+Q71F23+Q13352). In words: pull-down; glutathione-agarose, CENP-OPQUR with GST on CENP-U as bait, FACT constructs as preys; 3 µM each; 20 mM Hepes pH 6.8, 300 mM NaCl, 2.5% glycerol, 1 mM TCEP, 0.01% Tween; 4°C; both purified.
Another assay has as its target ^EGFPCENP-U^fl (human) (UniProt Q71F23). In words: co-IP; GFP-Trap magnetic agarose, lysates (7 mg/ml) of STLC-synchronized DLD-1 cells harvested by mitotic shake off, Benzonase in the lysis buffer (75 mM Hepes pH 7.5, 150 mM KCl, 0.075% NP-40), 3 h at 4°C; western blot for GFP, SSRP1, PLK1. Background: Immunoblotting shows a protein as a band on a membrane.
Assay [3] addresses ^EGFPCENP-U^115-C (human) (UniProt Q71F23). The description is as above.

For “FACT^trunc (SPT16^508–988/SSRP1^1–514) (from UniProt Q9Y5B9 508-988; Q08945 1-514) (complex)”, the binding entry in assay [1] is “binds”. Consider “SPT16^Mid-AID (SPT16^644–988) (from UniProt Q9Y5B9 644-988) (domain or fragment)”, for which the binding result in assay [2] is listed as “binds weakly”; in assay [1] it was “binds”. On to “SSRP1^Mid-AID (SSRP1^197–514) (from UniProt Q08945 197-514) (domain or fragment)”, for which the binding entry in assay [1] is given as “binds weakly”.

Take “endogenous FACT in DLD-1 cells (detected by SSRP1 blot) (from UniProt Q08945 1-709; Q9Y5B9 1-1047) (complex)”: the binding entry is “binds” with ^EGFPCENP-U^fl (human) and “no binding” in assay [3].

(Values after article PMC11912937.)
